The source of these data is the supplement of paper PMC8183993.

Counter-ions that a name gives are not always drawn. ± gives the standard deviation of the averaged measurements. Whole data set: some 3,100 compounds, median “mean cytoplasmic OPP incorporation (global translation) relative to DMSO” near 100, cut for the lowest 2% near 56. The list shows a part of the results.

The subject of the experiment is U2OS. As to the kind of experiment: mean cytoplasmic OPP incorporation (global translation) relative to DMSO (% of DMSO); higher = more protein synthesis. The note with it: 10 µM; 24 h. On the procedure:
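Primary image-based screen in U2OS cells: compounds at 10 uM for 24 h, then a 1 h o-propargyl-puromycin (OPP) pulse, click labelling, and high-throughput microscopy. Mean cytoplasmic OPP intensity and nuclei count were normalised to DMSO wells within each plate (DMSO = 100) and averaged over triplicate plates.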
For `CCOC(=O)c1c(CSc2ccccc2)n(C)c2cc(Br)c(O)c(CN(C)C)c12` [Arbidol HCl], the “mean cytoplasmic OPP incorporation” value worked out at 109.
Take `CC(=O)[C@H]1CC[C@H]2[C@@H]3CC=C4C[C@@H](O)CC[C@]4(C)[C@H]3CC[C@]12C` [Pregnenolone]: the “mean cytoplasmic OPP incorporation” value is 102 ± 3.
In the case of `COc1ccc(CC2c3cc(OC)c(OC)cc3CC[N+]2(C)CCC(=O)OCCCCCOC(=O)CC[N+]2(C)CCc3cc(OC)c(OC)cc3C2Cc2ccc(OC)c(OC)c2)cc1OC` (stereo not drawn) [Atracurium besylate], the “mean cytoplasmic OPP incorporation” value is 103.
`CN(C)c1ccc(C(=C2C=CC(=[N+](C)C)C=C2)c2ccc(N(C)C)cc2)cc1` [Crystal violet]: the “mean cytoplasmic OPP incorporation” value was determined as 106.
For `Oc1cc2c(cc1O)[C@@H]1c3ccc(O)c(O)c3OC[C@]1(O)C2` [Hematoxylin (Hydroxybrazilin)], the “mean cytoplasmic OPP incorporation” value was determined as 88.4.
With `CC(C(=O)O)c1ccc2c(c1)CC(=O)c1ccccc1S2` (stereo not drawn) [Zaltoprofen] the figure was 102; with `C[C@@H](O)[C@H]1C(=O)N2C(C(=O)[O-])=C(SC3Cn4cnc[n+]4C3)[C@H](C)[C@H]12` (stereo partly drawn) [Biapenem], 101.
Take `Cc1nc(-c2ccc(OCC(C)C)c(C#N)c2)sc1C(=O)O` [Febuxostat (Uloric)]: the “mean cytoplasmic OPP incorporation” value stood at 100.
With `CC(COc1ccccc1)NC(C)C(O)c1ccc(O)cc1` (stereo not drawn) [Isoxsuprine hydrochloride], the “mean cytoplasmic OPP incorporation” value is 104.
Then `CC(C)(C)c1ccc(C(O)CCCN2CCC(C(O)(c3ccccc3)c3ccccc3)CC2)cc1` (stereo not drawn) [Terfenadine], with 105.
For the compound `C=C1/C(=C\C=C2/CCC[C@]3(C)[C@@H]([C@H](C)/C=C/[C@H](C)C(C)C)CC[C@@H]23)C[C@@H](O)C[C@@H]1O` [Doxercalciferol (Hectorol)], the “mean cytoplasmic OPP incorporation” value worked out at 105.
In the case of `C[C@H]1O[C@@H](Oc2c(-c3cc(O)c(O)c(O)c3)oc3cc(O)cc(O)c3c2=O)[C@@H](O)[C@@H](O)[C@@H]1O` [Myricitrin (Myricitrine)], the “mean cytoplasmic OPP incorporation” value was 97.9.
Turning to `Cc1ccc2c(=O)c3cccc(CC(=O)O)c3oc2c1C`, the “mean cytoplasmic OPP incorporation” value came to 101.
On to `C=C1C(=O)O[C@@H](CCC)[C@@H]1C(=O)O` [Butyrolactone 3], for which the “mean cytoplasmic OPP incorporation” value was 100.
As for `CCOC(=O)NNc1nncc2ccccc12` [Todralazine hydrochloride], the “mean cytoplasmic OPP incorporation” value stood at 99.7.
For `CCCCN1CCCCC1C(=O)Nc1c(C)cccc1C` (stereo not drawn) [Bupivacaine hydrochloride], the “mean cytoplasmic OPP incorporation” value is 105.
With `C[N+](C)(C)[C@@H](Cc1c[nH]c(=S)[nH]1)C(=O)[O-]` [L-Ergothioneine] the figure was 117; with `COC1CCN(C(=O)c2cc(Cc3n[nH]c(=O)c4ccccc34)ccc2F)CC1`, 93.5.
Then `c1cncc(CN2CCC(n3ncc4c(N5CCOCC5)nc(-c5ccc6[nH]ccc6c5)nc43)CC2)c1`, with 88.7; and `C=C(C)[C@@H](CC=C(C)C)C[C@@]12C[C@@H](CC=C(C)C)C(C)(C)[C@@](CC=C(C)C)(C(=O)C(C(=O)c3ccc(O)c(O)c3)=C1O)C2=O` [Garcinol], with 100.
On to `Nc1ccn([C@@H]2O[C@H](CO)[C@@H](O)[C@@H]2O)c(=O)n1` [Cytarabine], for which the “mean cytoplasmic OPP incorporation” value worked out at 84.8 ± 8.8.
Consider `O=S1(=O)c2cccc3cccc(c23)N1CCCN1CCN(c2ccc(F)cc2)CC1` [Fananserin], for which the “mean cytoplasmic OPP incorporation” value was found to be 103.
With `Nc1ncnc2c1ncn2C1CCCO1` (stereo not drawn) the figure was 96.6; with `Cc1[nH]c2ccccc2c1CCNCc1ccc(/C=C/C(=O)NO)cc1` [Panobinostat], 51.6.
In the case of `Nc1ccc(S(=O)(=O)Nc2ccccn2)cc1` [Sulfapyridine], the “mean cytoplasmic OPP incorporation” value amounted to 96.3.
With `Cn1cc(-c2ccncc2)c(-c2ccc(OCc3ccc4ccccc4n3)cc2)n1`, the “mean cytoplasmic OPP incorporation” value amounted to 117.
With `O=C(O)[C@H]1O[C@@H](Oc2cc3oc(-c4ccccc4)cc(=O)c3c(O)c2O)[C@H](O)[C@@H](O)[C@@H]1O` [Baicalin], the “mean cytoplasmic OPP incorporation” value turned out to be 108.
Take `Nc1ccc(C(=O)Nc2cccc(-c3nc(N4CCOCC4)c4oc5ncccc5c4n3)c2)cn1`: the “mean cytoplasmic OPP incorporation” value was 95.2 ± 2.
With `CN(C)CCCN1c2ccccc2Sc2ccc(Cl)cc21` [Chlorpromazine hydrochloride], the “mean cytoplasmic OPP incorporation” value is 85.4.
As to `O=C(O)c1c(Sc2ccccc2)c2cc(Cl)ccc2n1Cc1ccc(Cl)cc1`, the “mean cytoplasmic OPP incorporation” value turned out to be 97.6.
On to `COc1cc([C@@H]2c3cc4c(cc3[C@@H](O[C@@H]3O[C@@H]5CO[C@@H](c6cccs6)O[C@H]5[C@H](O)[C@H]3O)[C@H]3COC(=O)[C@H]23)OCO4)cc(OC)c1O` [Teniposide (Vumon)], for which the “mean cytoplasmic OPP incorporation” value was found to be 141.
Take `CCOc1ccccc1OC(c1ccccc1)C1CNCCO1` (stereo not drawn) [Reboxetine mesylate]: the “mean cytoplasmic OPP incorporation” value stood at 106 ± 15.
Then `O=c1[nH]cnc2c1ncn2[C@@H]1O[C@H](CO)[C@@H](O)[C@H]1O` [Inosine], with 105; and `CCCCOc1cc(CC2CNC(=O)N2)ccc1OC` (stereo not drawn), with 97.5.
Turning to `O=C1NC(=O)/C(=C/c2ccc3c(c2)OC(F)(F)O3)S1`, the “mean cytoplasmic OPP incorporation” value was 94.4.
With `CCOC(=O)[C@@](C)(N)Cc1ccc(O)c(O)c1` [Methyldopate hydrochloride] the figure was 103.
`O=C(c1ccccc1)c1ccc2n1CCC2C(=O)O` (stereo not drawn) [Ketorolac tromethamine]: the “mean cytoplasmic OPP incorporation” value turned out to be 102.
As for `COc1c(N2CCNC(C)C2)c(F)cc2c(=O)c(C(=O)O)cn(C3CC3)c12` (stereo not drawn) [Gatifloxacin], the “mean cytoplasmic OPP incorporation” value was 105.
With `CNC(=O)[C@H]1O[C@@H](n2cnc3c(NCc4cccc(I)c4)nc(Cl)nc32)[C@H](O)[C@@H]1O` the figure was 101; with `CCN(CC)CCCC(C)Nc1nc(C)cc(Nc2ccc3nc(C)cc(N)c3c2)n1` (stereo not drawn), 105 ± 5.5.
With `O=C(C[S+]([O-])Cc1ccco1)NC/C=C\COc1cc(CN2CCCCC2)ccn1` (stereo not drawn) [Lafutidine], the “mean cytoplasmic OPP incorporation” value stood at 102.
For `O=[N+]([O-])c1cccc2c[nH]nc12`, the “mean cytoplasmic OPP incorporation” value amounted to 102.
With `C#CCC(Cc1cnc2nc(N)nc(N)c2n1)c1ccc(C(=O)N[C@@H](CCC(=O)O)C(=O)O)cc1` (stereo partly drawn) [Pralatrexate (Folotyn)] the figure was 84.1; with `CN(CC[C@@H](Oc1ccc(-c2ccccc2)cc1)c1ccc(F)cc1)CC(=O)O` [ALX 5407 hydrochloride], 99.5; with `O=C(NOCC(O)CO)c1cc(Br)c(F)c(F)c1Nc1ccc(I)cc1F` (stereo not drawn), 91.9.
Then `CN(C)CC(c1ccc(O)cc1)C1(O)CCCCC1` (stereo not drawn) [Desvenlafaxine Succinate], with 98.6; and `COc1ccc(S(=O)(=O)N(CCO)c2ccccc2CN(C)C/C=C/c2ccc(Cl)cc2)cc1` [KN-93 Phosphate], with 116; and `O=C(Nc1ccccc1Br)N[C@@H]1CCN(c2ccc(C(F)(F)F)cn2)C1`, with 93.
